Measured values as given in PubChem BioAssay AID624171 (National Center for Advancing Translational Sciences (NCATS), 2012).
“And” between values parts separate entries of the source, which are not always exact repeats. Equal entries are not always repeated. Hit rate of the full screen: of about 410,000 compounds, about 1,200 (0.29%) were called active. The shares of active, inactive and inconclusive entries below differ from those in the screen. The call rests on the fitted dose curve; in most records, active means well fitted activation curve with a large enough effect; inconclusive means small, poorly fitted or top-dose-only effect; inactive means flat fitted curve, though single readings scatter. A potency beside an inconclusive call is a rough fit, not a confirmed value.

Experiment: qHTS of Nrf2 Activators; further: nearly all actives have a fitted effect of over 65% in size; on activation: % of control where 0% means no effect
Settings: AREc32 ARE-luciferase reporter (MCF7-derived line), luminescence, 24 h; activation: at 46.1 µM (top of the series)
In short: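 AREc32 cells carrying an ARE-driven firefly luciferase, 1000 cells/well in OPTI-MEM with 5% FBS, dosed after overnight attachment and incubated 24 hr at 37 deg C. Steady-Glo luminescence read after 30 min at RT.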
Potency means the concentration at half of the fitted maximal effect; tags describe the fitted curve by direction and shape.

| SMILES | Potency | activation |
| --- | --- | --- |
| Cc1ccc(S(=O)(=O)ON2C(=O)c3cccc4cccc(c34)C2=O)cc1 | inactive |  |
| O=C(/C=C/c1c(Cl)cccc1Cl)Nc1ccncc1 | inconclusive: 28.2 µM [activator, single point] |  |
| Cc1ccc(Cl)cc1-n1c(=O)c2sc3ccccc3c2n(Cc2ccccc2)c1=O | inactive |  |
| COc1cc(-c2nnc(-c3cc(OC)c(OC)c(OC)c3)o2)cc(OC)c1OC | inactive |  |
| COC(=O)c1ccccc1NC(=O)NCc1ccco1 | inactive |  |
| O=C1NC(=Nc2ccc3ccccc3c2)S/C1=C/c1ccco1 | inconclusive: 14.1 µM [activator, partial curve, poor fit] |  |
| O=C1C(c2cc(=O)c3ccccc3[nH]2)=C(O)c2ccccc21 | inconclusive: 0.891 µM [activator, full curve, poor fit] |  |
| Cc1ccc(NC(=O)CN(C)Cc2c(O)ccc3ccccc23)cc1 | inconclusive: 22.4 µM [activator, single point] |  |
| CCN1CCN(c2sc(S(C)(=O)=O)nc2S(=O)(=O)c2ccc(C)cc2)CC1 | inconclusive: 17.8 µM [activator, partial curve, poor fit] |  |
| CN(C)c1ccc(N=Nc2ccccc2C(=O)OCC(=O)N2CCCC2)cc1 | inconclusive: 25.1 µM [activator, single point] |  |
| Cc1ccccc1NS(=O)(=O)c1ccc(OCC(=O)N2CCCC2)cc1 | inactive |  |
| CCCCN(C(=O)Cn1ncc(Cl)c(Cl)c1=O)c1c(N)n(CC(C)C)c(=O)[nH]c1=O | inconclusive: 2.82 µM [activator, partial curve, poor fit] |  |
| CNC(=S)N(C)/N=C1/C(=O)N(Cc2c(Cl)cccc2Cl)c2ccccc21 | inconclusive: 31.6 µM [activator, single point] |  |
| O=Cc1ccc(O)c2ncccc12 | inconclusive: 2.82 µM [activator, partial curve, poor fit] |  |
| C=CCNc1ncnc2c1ncn2[C@H]1CN(CCc2ccccc2)C[C@@H](CO)O1 |  | inactive: -0.0902% [at 9.22 µM] |
| O=C(CSc1nc2ccc(Cl)cc2[nH]1)c1cccs1 | inconclusive: 10 µM [activator, partial curve, poor fit] |  |
| CN(C)CCCn1c2c3ccccc3ccc2c2oc(=O)c3ccccc3c21 | inconclusive: 7.08 µM [activator, partial curve, poor fit] |  |
| N#C/C(=C(/O)c1ccco1)c1nc2ccccc2s1 | inconclusive: 1.12 µM [activator, full curve, poor fit] and inconclusive: 5.62 µM [activator, full curve, poor fit] |  |
| C#CCSc1nnc(-c2cccc3ccccc23)o1 | active: 11.2 µM |  |
| COc1ccc(CCNC(=S)NCc2ccc(Cl)c(Cl)c2)cc1OC | inactive |  |
| O=C(O)CN(c1ccccn1)S(=O)(=O)c1ccccc1 | inactive |  |
| COc1ccccc1C(=O)Nc1nnc(-c2ccco2)s1 | inconclusive: 2.24 µM [activator, full curve, poor fit] |  |
| COc1ccc(OCC(=O)Nc2cc(-c3ccccc3F)nn2-c2ccccc2)cc1 | inactive |  |
| CCN(C(=O)COC(=O)c1cc(=O)c2ccccc2o1)c1c(N)n(Cc2ccccc2)c(=O)[nH]c1=O | inconclusive: 20 µM [activator, single point] |  |
| Cc1ccc(NC(=O)c2cc(=O)c3ccccc3o2)cc1 | inconclusive: 8.91 µM [activator, partial curve, poor fit] |  |

| SMILES | Potency | activation |
| --- | --- | --- |
| COc1cccc(-c2cn3c(n2)sc2cc(C(=O)NCCCc4ccccc4)ccc23)c1 | inactive |  |
| COc1ccc([N+](=O)[O-])cc1C1NN=C(c2ccccc2O)S1 (stereo not given) | active: 4.47 µM |  |
| COC(=O)c1c(NC(=O)Cc2cccs2)sc(C(=O)N2CCCCC2)c1C | inactive |  |
| Cc1ccsc1/C=C/C1=Cc2c(sc(NC(=O)CSc3n[nH]c(N)n3)c2C#N)C(C)(C)C1 | inconclusive: 11.2 µM [activator, partial curve] |  |
| Clc1ccccc1-c1cc2nc(NCCCn3ccnc3)ccn2n1 | inactive |  |
| CCc1ccc(C#CC2=CC(=O)CC(C)(C)C2)cc1 | inconclusive: 17.8 µM [activator, single point] |  |
| O=C(NN=Cc1cc(Cl)ccc1[N+](=O)[O-])c1ccco1 | inconclusive: 17.8 µM [activator, partial curve, poor fit] |  |
| C=C1C(=O)[C@]23C[C@H]1CC[C@H]2[C@]1(C)[C@@H](O)CC[C@@](C)(C(=O)O)[C@H]1C[C@@H]3O | inconclusive: 3.98 µM [activator, single point] |  |
| CCC1=Nc2cc(C(=O)NC3CCC(C)CC3)ccc2Sc2ccc(C)cc21 (stereo not given) | inactive |  |
| CCOc1ccc(OCC)c(Nc2ccc3cc(S(=O)(=O)N4CCCC4)ccc3n2)c1 | inactive |  |
| COc1ccc(NC(=O)c2cccc(-n3c(C)ccc3C)c2)c(OC)c1 | inconclusive: 28.2 µM [activator, single point] |  |
| O=C(c1cnn(-c2cccc(F)c2)c1)c1ccccc1O | inconclusive: 17.8 µM [activator, single point] |  |
| Cc1ccc(/C=C2\SC(=S)N(C3CCS(=O)(=O)C3)C2=O)o1 (stereo not given) | inconclusive: 31.6 µM [activator, partial curve, poor fit] |  |
| CCN1C(=O)/C(=C2/C=Cc3ccccc3N2CC)SC1=S | inconclusive: 17.8 µM [activator, partial curve, poor fit] |  |
| COc1ccc(-c2csc(Nc3ccc(O)cc3)n2)cc1 | inconclusive: 5.62 µM [activator, single point] |  |
| COCc1nnc(NC(=O)CCS(=O)(=O)c2ccccc2)s1 | inconclusive: 35.5 µM [activator, single point] |  |
| Cc1cc(C)cc(NC(=S)Nc2ccc(Cl)c(Cl)c2)c1 | inactive |  |
| Cc1ccc(/C=C2\SC(=S)N(CCCC(=O)Nc3ccc(O)cc3)C2=O)cc1 | inactive |  |
| O=C(COc1ccccc1)OCc1cc(=O)n2nc(C3CC3)sc2n1 | inactive |  |
| CCCc1[nH]nc2c1C(/C(C)=C/c1ccccc1)C(C#N)=C(N)O2 (stereo not given) | inconclusive: 35.5 µM [activator, single point] |  |
| C/C(=N\NC(=S)NCc1ccccc1)c1ccccc1 | inactive |  |
| O=c1c2ccccc2on1-c1ccccc1 | inconclusive: 31.6 µM [activator, single point] |  |
| Cc1ccc(C(=O)c2c(N)c(-c3nc(-c4ccc5c(c4)OCO5)cs3)c3ccccn23)cc1C | inactive |  |
| C(=N\Nc1ccc2nncn2n1)/c1ccco1 | active: 10 µM |  |
| COc1ccc(Cl)cc1NC(=O)CSc1cccc[n+]1[O-] | inconclusive: 22.4 µM [activator, single point] |  |

| SMILES | Potency | activation |
| --- | --- | --- |
| CCCc1c(C)[nH]c2ccc(NC(C)=O)cc2c1=O | inactive |  |
| CNCc1ccccc1Sc1cc(O)ccc1O | inconclusive: 22.4 µM [activator, single point] |  |
| CCCCOc1ccc(C2(C)CC(=O)NC2=O)cc1 (stereo not given) | inactive |  |
| CCN(CC)CCCCNc1ncc2cc(-c3cc(OC)cc(OC)c3)c(NC(=O)NC(C)(C)C)nc2n1 | inactive |  |
| O=C(CSc1nccc(-c2cccs2)n1)Nc1cccc(Cl)c1 | inconclusive: 2.82 µM [activator, full curve, poor fit] |  |
| Oc1ccc(-c2csc(NCc3ccco3)n2)cc1 | inconclusive: 22.4 µM [activator, single point] |  |
| Cn1nnnc1Sc1ncnc2scc(-c3cccc(F)c3)c12 | inconclusive: 0.562 µM [activator, full curve, poor fit] |  |
| c1ccc(CCNc2ncnc3ccccc23)cc1 | inactive |  |
| CN1CCc2c(sc(NC(=O)CSc3ccccc3)c2-c2nc3ccccc3s2)C1 | inconclusive: 10 µM [activator, partial curve] |  |
| Cn1c(NCc2ccc3occc3c2)nc2cc(-c3cccc(C(F)(F)F)c3)sc2c1=O | inconclusive: 10 µM [activator, partial curve, poor fit] |  |
| COC(=O)c1cc(=O)n(-c2ccccc2)c(=Nc2ccccc2)s1 | inconclusive: 17.8 µM [activator, single point] |  |
| CCOC(=O)c1c(N)sc2c(NC(C)=O)cccc12 | inactive |  |
| CCCN1CCN(CCNC(=O)Nc2cc(C)ccc2OC)CC1 | inactive |  |
| Cc1ccc(-n2c(-c3nn(C)c(C)c3Cl)n[nH]c2=S)cc1 | inactive |  |
| COc1ccc(OC)c(CCNC(=O)CN2C(=O)COc3ccc(S(=O)(=O)N4CCC(C)CC4)cc32)c1 | inactive |  |
| COCCCNCCOCCSc1ccc(Cl)cc1 | inactive |  |
| O=C(NCc1ccco1)c1c(O)c2cccc3c2n(c1=O)CCC3 | inconclusive: 7.94 µM [activator, partial curve] |  |
| CC(=O)c1ccc(OCCCC(=O)Nc2ccc(Cl)c(S(=O)(=O)N3CCOCC3)c2)cc1 | inactive |  |
| O=C(CSc1nnnn1C1CC1)N1CCN(c2cccc(Cl)c2)CC1 | inactive |  |
| Cc1ccc(O)c(N)c1 | inconclusive: 11.2 µM [activator, partial curve] |  |
| COc1ccc(OCC(=O)Nc2ccc(O)c(-c3nc4ccccc4s3)c2)cc1 | inconclusive: 3.16 µM [activator, partial curve] |  |
| O=C1NC2c3c(Cl)sc(Cl)c3C(=O)C2O1 (stereo not given) | active: 15.8 µM |  |
| COc1ccc2c(c1)-c1nc(NC(=O)c3ccccc3F)sc1CC2 | inactive |  |
| O=S(=O)(c1ccccc1)N1CCN(Cc2c(O)ccc3ccccc23)CC1 | inactive |  |
| Fc1ccccc1-c1cc2ccccc2cn1 | inconclusive: 12.6 µM [activator, single point] |  |
